Whole data set: some 1,400 sequences, median “thermal melting temperature (Tm) of peptide-HLA complex” near 60, cut for the lowest 2% near 45. Some of the results follow.
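Further: cell lysates heated 10 min at 37–73 °C, remaining pHLA pulled down with pan-class I antibody, peptides quantified by DIA-MS versus 37 °C, Tm where half the complex is lost.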

The assay addresses HLA-B*07:02. The assay is described as follows: thermal melting temperature (Tm) of peptide-HLA complex; higher = more thermostable pHLA complex. The settings on record: C1R-B*07:02.
As to MPSLKHIVEL, the thermal melting temperature came out at 59.9 °C.
The result for RPSQNLLQL reads 61.3 °C; that for YPGAERNLL, 60.8 °C.
Then QPAAQRGLVLL, with 61.3 °C; and SPFFERSGL, with 62.7 °C; and SPYPGLRLISL, with 62.1 °C.
In turn, APRPLQPYL showed a thermal melting temperature of 60.9 °C.
On to RPSQFPHSL, for which the thermal melting temperature is 56.4 °C.
The sequence LPKSHLEPSL displayed a thermal melting temperature of 50.2 °C.
Sequence RPKAQPTTL came in with a thermal melting temperature of 58 °C.
In turn, HPRGGVIQSV registered a thermal melting temperature of 50.4 °C.
For HPNEGALVL, the thermal melting temperature was 57.4 °C.
For LTRPGSSSL, the thermal melting temperature is 57.4 °C.
For RPSDEVIREL, the thermal melting temperature stood at 55.3 °C.
As to IPLKPSNEL, the thermal melting temperature was 59.1 °C.
As to KVRGISEVL, the thermal melting temperature was 60.5 °C.
The result for APFQGDQRSL reads 57.9 °C.
The sequence APRIALHTAL yielded a thermal melting temperature of 60.6 °C.
In the case of APILKRAL, the thermal melting temperature is 60.8 °C.
The sequence VPASQKLRQL displayed a thermal melting temperature of 59.7 °C.
Then KPSESIYSAL, with 59.5 °C; and QPRDFGDSL, with 56.9 °C.
Sequence SPRTSLTVV came in with a thermal melting temperature of 57.1 °C.
SPVSYLRVSM came in with a thermal melting temperature of 61.5 °C.
In the case of APSPVIPRL, the thermal melting temperature came out at 61.4 °C.
RPSGAVVTL gave a thermal melting temperature of 58.1 °C.
APKPRLNQL: the thermal melting temperature stood at 53.2 °C.
YPAAKRVKL yielded a thermal melting temperature of 58.2 °C.
As for FPRSPGQPSSL, the thermal melting temperature was found to be 59.7 °C.
For SVRPAVLQV, the thermal melting temperature worked out at 57.8 °C.
As for HPQWYPARQSL, the thermal melting temperature stood at 57.8 °C.
The result for VWDPRVSVL reads 53.2 °C.
Turning to MPYNYPVLL, the thermal melting temperature stood at 60.7 °C.
The result for GPRSSLRVL reads 58.9 °C; that for APRFISPASQL, 61.1 °C.
With RPMPDIDTL, the thermal melting temperature came to 60.4 °C.
For LPRAGGPLGL, the thermal melting temperature amounted to 60.6 °C.
In the case of KPHLPSVTYL, the thermal melting temperature turned out to be 60.8 °C.
As for YPQGQAPPL, the thermal melting temperature was 59.5 °C.
In the case of SPRLPVGGF, the thermal melting temperature was 62.2 °C.
Regarding KPQSFQVIL, the thermal melting temperature turned out to be 61.1 °C.
APKSPSSEWL returned a thermal melting temperature of 51.9 °C.
In turn, RPSGPSKAL returned a thermal melting temperature of 61.4 °C.
The sequence APPEYHRKAV registered a thermal melting temperature of 51 °C.
The sequence LPWASTHSL came in with a thermal melting temperature of 58.1 °C.
In the case of SPSPLRAGVDI, the thermal melting temperature turned out to be 61.8 °C.
PARVALSL came in with a thermal melting temperature of 63.4 °C.
The result for SPDIKQEL reads 57.6 °C.
The result for QPKLPMRTL reads 57 °C; that for SPRPNHSYIF, 57.6 °C; that for SPQGQFVVL, 60.9 °C.
As for GPLPRTVEL, the thermal melting temperature is 59.9 °C.
In turn, MPSEQIRNQL registered a thermal melting temperature of 56.8 °C.
The result for SPRPALPALL reads 60.2 °C.
QVRLPLGTL registered a thermal melting temperature of 60.7 °C.
On to RPREVTVSL, for which the thermal melting temperature turned out to be 59.8 °C.
